Results on two molecules are retold here after US20190322765A1 (Hoffmann-La Roche, published 2019).

Values joined by “and” are separate entries in the source; they are usually repeats but may differ in a detail not shown here. Equal entries are not always repeated.

Usually Kd stands for the constant that tells how readily two partners part at equilibrium. A word on the EC50: it is the concentration needed to bring the measured effect to its halfway point. Low values mean an effect from little substance, high ones a need for much substance.

Experiment [1] has as its target T1, human IL-2R βγ heterodimer, subunit-Fc knobs-into-holes fusion (human).
T1 construct: The entries may hold a leader peptide; also called Hu IL-2R βγ; human IL2-R β knob γ hole heterodimer
In words: SPR, receptor on CM5, 25°C, kinetic.

The target of experiment [2] is T2, human IL-2R α-subunit, monomeric, with AcTev cleavage site and Avi His tag (human).
T2 construct: also called Hu IL-2R α; CD25
T2 chain: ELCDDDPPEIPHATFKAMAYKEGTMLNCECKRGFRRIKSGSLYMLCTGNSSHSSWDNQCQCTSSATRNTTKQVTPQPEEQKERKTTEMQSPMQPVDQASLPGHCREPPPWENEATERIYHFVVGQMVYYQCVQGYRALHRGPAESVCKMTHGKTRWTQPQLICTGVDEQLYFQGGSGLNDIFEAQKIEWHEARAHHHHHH
The experiment in a line: SPR, receptor on CM5, 25°C, kinetic. A general note: In SPR one partner is held on a chip, and binding of the other changes the refractive index at the surface.

Experiment [3] concerns the target T2, human IL-2R α-subunit, monomeric, with …. The experiment in a line: SPR, receptor on CM5, 25°C, steady state.
Experiment [4] concerns the target T3, IL-2R βγ heterodimer on human cells (NK92 cells, NK and T cells of PBMC) (human, UniProt P14784 27-551; P31785 23-369).
T3 sequence (looked up) 1: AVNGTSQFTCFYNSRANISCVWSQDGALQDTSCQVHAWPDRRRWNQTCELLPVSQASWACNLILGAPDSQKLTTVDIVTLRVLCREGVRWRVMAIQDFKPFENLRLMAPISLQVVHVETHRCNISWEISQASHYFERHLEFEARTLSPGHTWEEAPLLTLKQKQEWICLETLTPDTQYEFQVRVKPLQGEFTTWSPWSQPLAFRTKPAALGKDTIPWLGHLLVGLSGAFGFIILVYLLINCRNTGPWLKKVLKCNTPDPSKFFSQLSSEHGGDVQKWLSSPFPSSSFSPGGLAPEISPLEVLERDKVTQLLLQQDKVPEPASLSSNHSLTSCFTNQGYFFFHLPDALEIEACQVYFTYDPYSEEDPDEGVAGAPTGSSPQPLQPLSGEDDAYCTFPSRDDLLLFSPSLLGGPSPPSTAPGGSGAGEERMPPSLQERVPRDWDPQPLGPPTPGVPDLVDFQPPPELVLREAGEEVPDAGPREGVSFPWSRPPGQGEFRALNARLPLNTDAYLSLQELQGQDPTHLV
T3 sequence (looked up) 2: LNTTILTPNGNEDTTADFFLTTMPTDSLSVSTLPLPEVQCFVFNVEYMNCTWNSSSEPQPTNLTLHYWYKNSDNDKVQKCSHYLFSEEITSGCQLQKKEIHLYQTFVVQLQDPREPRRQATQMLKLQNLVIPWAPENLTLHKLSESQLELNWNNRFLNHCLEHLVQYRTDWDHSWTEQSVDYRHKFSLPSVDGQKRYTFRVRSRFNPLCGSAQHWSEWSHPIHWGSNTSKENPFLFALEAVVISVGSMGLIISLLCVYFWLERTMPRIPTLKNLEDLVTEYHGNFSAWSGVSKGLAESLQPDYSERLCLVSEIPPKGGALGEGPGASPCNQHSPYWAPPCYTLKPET
The experiment in a line: cell-based or functional assay.

Experiment [5] addresses T4, CD25 on human T cells (activated T cells, Treg cells) (human, UniProt P01589 22-272).
T4 sequence (looked up): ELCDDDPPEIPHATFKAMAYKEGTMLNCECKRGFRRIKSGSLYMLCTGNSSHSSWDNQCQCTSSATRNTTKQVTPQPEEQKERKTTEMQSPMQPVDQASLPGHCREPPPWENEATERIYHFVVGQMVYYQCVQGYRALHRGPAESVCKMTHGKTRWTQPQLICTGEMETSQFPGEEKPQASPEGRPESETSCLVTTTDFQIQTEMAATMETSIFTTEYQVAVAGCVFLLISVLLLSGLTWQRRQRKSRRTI
The experiment in a line: cell-based or functional assay.

The target in experiment [6] is T5, human FAP expressed on stably transfected HEK293 cells (human, UniProt Q12884 1-760).
T5 construct: whole, on cells
The experiment in a line: FACS on FAP-expressing HEK cells.

The target in experiment [7] is T6, cynomolgus IL-2R βγ heterodimer (β knob γ hole Fc fusion) (cynomolgus).
T6 construct: also called Cyno IL-2R βγ
The experiment in a line: SPR, receptor on CM5, 25°C, 1:1 fit.

The target in experiment [8] is T1, human IL-2R βγ heterodimer, subunit-Fc …. In words: SPR, receptor on CM5, 25°C, 1:1 fit.
Experiment [9] addresses T7, murine IL-2R βγ heterodimer (β knob γ hole Fc fusion) (murine, UniProt P16297 27-240; P34902 23-263).
T7 construct: also called Mu IL-2R βγ; mouse IL-2R βγ heterodimer; not shown: Fc knob/hole part
T7 sequence (looked up) 1: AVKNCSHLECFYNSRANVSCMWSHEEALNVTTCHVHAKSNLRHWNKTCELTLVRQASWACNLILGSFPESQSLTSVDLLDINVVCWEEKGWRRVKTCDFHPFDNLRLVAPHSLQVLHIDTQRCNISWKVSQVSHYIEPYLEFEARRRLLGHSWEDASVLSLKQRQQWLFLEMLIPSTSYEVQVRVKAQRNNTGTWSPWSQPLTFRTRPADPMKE
T7 sequence (looked up) 2: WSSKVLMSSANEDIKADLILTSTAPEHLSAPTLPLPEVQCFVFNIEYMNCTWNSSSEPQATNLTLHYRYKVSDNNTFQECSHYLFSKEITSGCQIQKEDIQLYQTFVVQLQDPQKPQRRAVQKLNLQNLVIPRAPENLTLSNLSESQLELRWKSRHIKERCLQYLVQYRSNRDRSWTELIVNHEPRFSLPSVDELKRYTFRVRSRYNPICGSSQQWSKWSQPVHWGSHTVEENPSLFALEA
The experiment in a line: SPR, receptor on CM5, 25°C, 1:1 fit.

The target of experiment [10] is T6, cynomolgus IL-2R βγ heterodimer (β knob …). The experiment in a line: SPR, receptor on CM5, 37°C, 1:1 fit.
The target of experiment [11] is T1, human IL-2R βγ heterodimer, subunit-Fc …. In words: SPR, receptor on CM5, 37°C, 1:1 fit.
In experiment [12] the target is T7, murine IL-2R βγ heterodimer (β knob γ …). In words: SPR, receptor on CM5, 37°C, 1:1 fit.
Experiment [13] deals with T8, cynomolgus IL-2R α-subunit, recombinant monomeric (cynomolgus, UniProt H6WS54 22-240).
T8 construct: also called Cyno IL-2R α
T8 sequence: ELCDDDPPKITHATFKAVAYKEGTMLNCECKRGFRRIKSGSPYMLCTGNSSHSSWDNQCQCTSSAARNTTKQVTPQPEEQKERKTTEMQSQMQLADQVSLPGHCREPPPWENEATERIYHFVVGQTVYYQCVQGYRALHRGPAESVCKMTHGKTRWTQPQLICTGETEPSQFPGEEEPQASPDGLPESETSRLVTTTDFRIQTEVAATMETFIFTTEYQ
The experiment in a line: SPR, receptor on CM5, 25°C, 1:1 fit.

The target of experiment [14] is T2, human IL-2R α-subunit, monomeric, with …. The experiment in a line: SPR, receptor on CM5, 25°C, 1:1 fit.
In experiment [15] the target is T9, murine IL-2R α-subunit, recombinant monomeric (murine, UniProt P01590 22-236, limits assumed).
T9 construct: also called Mu IL-2R α
T9 sequence (looked up): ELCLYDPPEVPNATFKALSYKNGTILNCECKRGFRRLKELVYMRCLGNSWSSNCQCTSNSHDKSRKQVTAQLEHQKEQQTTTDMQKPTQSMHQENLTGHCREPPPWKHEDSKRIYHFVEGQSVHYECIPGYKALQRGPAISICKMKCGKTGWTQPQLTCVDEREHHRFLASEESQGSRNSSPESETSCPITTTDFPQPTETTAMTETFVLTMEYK
In words: SPR, receptor on CM5, 25°C, 1:1 fit.

Experiment [16] deals with T8, cynomolgus IL-2R α-subunit, recombinant …. In words: SPR, receptor on CM5, 37°C, 1:1 fit.
The target of experiment [17] is T2, human IL-2R α-subunit, monomeric, with …. The experiment in a line: SPR, receptor on CM5, 37°C, 1:1 fit.
The target in experiment [18] is T9, murine IL-2R α-subunit, recombinant …. The experiment in a line: SPR, receptor on CM5, 37°C, 1:1 fit.

B1: MHLG1-KV9 Fab-IL-2 wt-Fab (other)
heavy: EVQLVESGGGLVKPGGSLRLSCAASGFTFSNYWMNWVRQAPGKGLEWVAEIRLKSNNFGRYYAASVKGRFTISRDDSKNTLYLQMNSLKTEDTAVYYCTTYGNYVGHYFDHWGQGTTVTVSSASTKGPSVFPLAPSSKSTSGGTAALGCLVKDYFPEPVTVSWNSGALTSGVHTFPAVLQSSGLYSLSSVVTVPSSSLGTQTYICNVNHKPSNTKVDKKVEPKSCDSGGGGSGGGGSGGGG[no letters for about 150 residues]SGGGGSGGGGSGGGGEVQLVESGGGLVKPGGSLRLSCAASGFTFSNYWMNWVRQAPGKGLEWVAEIRLKSNNFGRYYAASVKGRFTISRDDSKNTLYLQMNSLKTEDTAVYYCTTYGNYVGHYFDHWGQGTTVTVSSASTKGPSVFPLAPSSKSTSGGTAALGCLVKDYFPEPVTVSWNSGALTSGVHTFPAVLQSSGLYSLSSVVTVPSSSLGTQTYICNVNHKPSNTKVDKKVEPKSCD
light: DIQLTQSPSFLSASVGDRVTITCKASQNVDTNVAWYQQKPGQAPRPLIYSASYRYTGVPSRFSGSGSGTEFTLTISSLQPEDFATYYCQQYNSYPLTFGGGTKVEIKRTVAAPSVFIFPPSDEQLKSGTASVVCLLNNFYPREAKVQWKVDNALQSGNSQESVTEQDSKDSTYSLSSTLTLSKADYEKHKVYACEVTHQGLSSPVTKSFNRGEC
notes: also called MCSP-targeted MHLG1-KV9 Fab-IL-2 wt-Fab
As for B1, the Kd in experiment [1] is 8.6 nM and 9.8 nM; in [2], 8.8 nM and 10.1 nM; in experiment [3], 6.8 nM and 10.9 nM.

B2: 28H1 Fab-IL-2 wt-Fab (other)
heavy: EVQLLESGGGLVQPGGSLRLSCAASGFTFSSHAMSWVRQAPGKGLEWVSAIWASGEQYYADSVKGRFTISRDNSKNTLYLQMNSLRAEDTAVYYCAKGWLGNFDYWGQGTLVTVSSASTKGPSVFPLAPSSKSTSGGTAALGCLVKDYFPEPVTVSWNSGALTSGVHTFPAVLQSSGLYSLSSVVTVPSSSLGTQTYICNVNHKPSNTKVDKKVEPKSCDSGGGGSGGGGSGGGG[no letters for about 150 residues]SGGGGSGGGGSGGGGEVQLLESGGGLVQPGGSLRLSCAASGFTFSSHAMSWVRQAPGKGLEWVSAIWASGEQYYADSVKGRFTISRDNSKNTLYLQMNSLRAEDTAVYYCAKGWLGNFDYWGQGTLVTVSSASTKGPSVFPLAPSSKSTSGGTAALGCLVKDYFPEPVTVSWNSGALTSGVHTFPAVLQSSGLYSLSSVVTVPSSSLGTQTYICNVNHKPSNTKVDKKVEPKSCD
light: EIVLTQSPGTLSLSPGERATLSCRASQSVSRSYLAWYQQKPGQAPRLLIIGASTRATGIPDRFSGSGSGTDFTLTISRLEPEDFAVYYCQQGQVIPPTFGQGTKVEIKRTVAAPSVFIFPPSDEQLKSGTASVVCLLNNFYPREAKVQWKVDNALQSGNSQESVTEQDSKDSTYSLSSTLTLSKADYEKHKVYACEVTHQGLSSPVTKSFNRGEC
notes: also called 28H1 Fab-IL-2-Fab; FAP 28H1 wt
Regarding B2, in experiment [4], the “EC50 of STAT5 phosphorylation, CD8+ T cells” value turned out to be 14.5 nM. Besides, the “EC50 of STAT5 phosphorylation, NK cells” value in experiment [4] is 3.32 nM. In addition, the “EC50 of STAT5 phosphorylation, Treg cells” value in experiment [5] was found to be 0.015 nM. This molecule also gave a half-maximal effective concentration (EC50) in experiment [6] of 0.64 nM. The Kd was 11.5 nM and 11.6 nM in experiment [7]; 9.7 nM and 9 nM in [8]; 112 nM and 79 nM in experiment [9]; 29.2 nM and 30.4 nM in [10]; 19 nM and 22 nM in [11]; 186 nM and 219 nM in [12]. The Kd in experiment [13] is 16 nM and 16.2 nM; in experiment [14] it was 16 nM and 16.2 nM; in experiment [15], 43.3 nM and 44 nM; in [16] it was 36.5 nM and 35.6 nM; in [17], 28.8 nM and 28.2 nM; in experiment [18], 67.5 nM and 61.1 nM.
